Test results: article PMC4336329 (PLoS ONE, 2015)
Out of some 310,000 compounds screened, about 2,200 (0.71%) showed an effect of 50% or more. The effect is printed as a negative number. Some of the results follow.

Target: human ether-à-go-go-related gene (hERG) potassium channel (human, UniProt Q12809)
Assay: primary screen, population patch clamp on CHO cells stably expressing hERG

human ether-à-go-go-related gene (hERG) potassium channel, sequence (Q12809 whole entry, looked up): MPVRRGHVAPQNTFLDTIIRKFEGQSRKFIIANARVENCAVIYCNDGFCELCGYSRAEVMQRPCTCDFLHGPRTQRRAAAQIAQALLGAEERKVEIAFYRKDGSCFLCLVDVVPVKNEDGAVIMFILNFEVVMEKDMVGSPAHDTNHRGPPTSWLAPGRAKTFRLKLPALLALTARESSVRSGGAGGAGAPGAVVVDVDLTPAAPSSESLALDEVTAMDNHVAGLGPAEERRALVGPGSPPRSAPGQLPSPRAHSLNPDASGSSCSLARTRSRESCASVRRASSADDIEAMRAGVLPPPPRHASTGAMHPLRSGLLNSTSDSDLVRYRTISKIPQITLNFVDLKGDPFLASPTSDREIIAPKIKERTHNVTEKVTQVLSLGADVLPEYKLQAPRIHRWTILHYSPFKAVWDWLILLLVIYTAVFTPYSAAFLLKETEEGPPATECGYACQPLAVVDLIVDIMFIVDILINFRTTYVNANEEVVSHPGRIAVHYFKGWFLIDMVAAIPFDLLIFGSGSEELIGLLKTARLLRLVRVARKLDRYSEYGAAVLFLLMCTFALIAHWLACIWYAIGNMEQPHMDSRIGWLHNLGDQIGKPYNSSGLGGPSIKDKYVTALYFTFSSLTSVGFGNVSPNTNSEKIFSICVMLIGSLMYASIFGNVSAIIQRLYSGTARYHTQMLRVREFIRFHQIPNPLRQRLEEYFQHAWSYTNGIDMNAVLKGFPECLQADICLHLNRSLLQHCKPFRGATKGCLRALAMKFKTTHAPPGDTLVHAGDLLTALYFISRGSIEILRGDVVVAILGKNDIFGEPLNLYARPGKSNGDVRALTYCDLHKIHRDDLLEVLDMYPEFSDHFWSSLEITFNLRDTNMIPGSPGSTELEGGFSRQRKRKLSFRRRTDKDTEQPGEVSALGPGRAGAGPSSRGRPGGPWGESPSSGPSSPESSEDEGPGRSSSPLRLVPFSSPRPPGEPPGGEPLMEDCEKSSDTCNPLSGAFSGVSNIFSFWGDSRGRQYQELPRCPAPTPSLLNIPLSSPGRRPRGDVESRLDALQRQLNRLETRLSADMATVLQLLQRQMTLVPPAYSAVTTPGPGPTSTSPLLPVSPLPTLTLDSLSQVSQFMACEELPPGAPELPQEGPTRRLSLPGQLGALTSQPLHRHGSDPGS

Row | Compound | hERG current change (%, negative = inhibition) at 1uM
1 | Cc1noc(C)c1C(=O)Nc1nc(-c2ccc(F)cc2)cs1 | 12.8%
2 | COC(=O)c1sc(NC(=S)NC(=O)c2ccc(F)cc2)nc1C | 14.2%
3 | O=C1COc2ccc(S(=O)(=O)CCC(=O)N3CCN(c4ccccc4)CC3)cc2N1 | 4.58%
4 | Cc1cccc(NS(=O)(=O)c2ccc(C(=O)N3CCCC3)cc2)c1C | 2.92%
5 | COc1cccc(CNC(=O)C2CCN(S(=O)(=O)c3ccc4c(c3)NC(=O)CO4)CC2)c1 | 10.2%
6 | CC(=O)c1cc2c(cc1NS(=O)(=O)c1ccc3c(c1)OCCO3)OCO2 | 0.659%
7 | O=C(COc1cccc(Br)c1)N/N=C/C(=O)c1ccccc1 | 9.07%
8 | Cc1ccccc1CNC(=O)Cn1cnc(S(=O)(=O)N2CCCC2)c1 | 12.8%
9 | CC(=O)N1CCN(C(=O)c2cc(C)nc3ccccc23)CC1 | 9.05%
10 | COc1cc(/C=N/NC(=O)c2cc(-c3ccco3)nc3ccccc23)cc(OC)c1O | 10.2%
11 | COc1cc(CNC(C)(C)CO)cc(Br)c1OCc1ccccc1.Cl | 8.67%
12 | CC(C)(C)NC(=O)C(=O)NNC(=O)c1cccc(F)c1 | 13%
13 | CC1(C)CC(=O)C(C=NCCN2CCN(C3CC(=O)N(c4cccc(Br)c4)C3=O)CC2)=C(O)C1 (stereo not drawn) | 2.16%
14 | CCCCCCn1nc(C(=O)OCC(=O)NC2CCS(=O)(=O)C2)c2ccccc2c1=O (stereo not drawn) | -9.6%
15 | CC(C)NC(=O)NC(=O)COC(=O)c1c2c(nc3ccccc13)CCC2 | 3.78%
16 | COc1ccc(N/C(=N\c2nc(C)cc(C)n2)NC(=O)C(C)C)cc1OC | 16.4%
17 | COc1ccc(Cn2c(N)c(C(=O)NCc3ccco3)c3nc4ccccc4nc32)cc1 | -0.563%
18 | Cc1c(NC(=O)C2CCCCN2S(=O)(=O)c2ccc(Cl)cc2)c(=O)n(-c2ccccc2)n1C (stereo not drawn) | 17.3%
19 | CC1CC(C)CN(CCCNC(=O)Cn2cccc2C(=O)c2ccccc2)C1 (stereo not drawn) | -25%
20 | COc1ccc(-c2noc(CCC(=O)NCc3ccco3)n2)cc1 | 13.9%
21 | COC(=O)c1sccc1OCc1cccc(OC)c1 | 7.62%
22 | Clc1ccc2noc(-c3ccccc3)c2c1 | 6.82%
23 | COc1cccc(CNC(=O)Cn2cc3c(n2)CCCCC3)c1 | 3.83%
24 | NC(=O)CN1CCN(S(=O)(=O)c2ccc(Cl)cc2)CC1 | 11.1%
25 | COc1ccc(NC(=O)CCC(=O)Nc2ccc3nc(N4CCOCC4)cc(C)c3c2)c(OC)c1 | 13.7%
26 | COc1cccc(OC)c1C(=O)NC(=S)NCc1cccnc1 | 13%
27 | CCn1c(=O)cc(C(=O)OC)sc1=Nc1ccc(F)c(F)c1 | -11.1%
